Laboratory results reported in PMC9911399, “Two distinct binding modes provide the RNA-binding protein RbFox with extraordinary sequence specificity”.
Substitutions are numbered along the chain they refer to; changes in the protein carry UniProt numbers. This is one part of the list.

B1: CCGAUUA (DNA:RNA)
RNA: GGGAGACCGGAAUUCAGAUUGUCCCCGAUUAUUAAAUCCCGUCGUAGCCACCA
DNA 1: CAATCTGAATTCCGGTCTCCC
DNA 2: TGGTGGCTACGACGGGATT
B2: GCUCGGC (DNA:RNA)
RNA: B1 RNA with C25G, G27U, A28C, U29G, U30G, A31C
DNA 1: CAATCTGAATTCCGGTCTCCC
DNA 2: TGGTGGCTACGACGGGATT
B3: ACCGUCG (DNA:RNA)
RNA: B1 RNA with C25A, G27C, A28G, U30C, A31G
DNA 1: CAATCTGAATTCCGGTCTCCC
DNA 2: TGGTGGCTACGACGGGATT
B4: AUGGUCC (DNA:RNA)
RNA: B1 RNA with C25A, C26U, A28G, U30C, A31C
DNA 1: CAATCTGAATTCCGGTCTCCC
DNA 2: TGGTGGCTACGACGGGATT
B5: UAUGAUA (DNA:RNA)
RNA: B1 RNA with C25U, C26A, G27U, A28G, U29A
DNA 1: CAATCTGAATTCCGGTCTCCC
DNA 2: TGGTGGCTACGACGGGATT
B6: UGGCACC (DNA:RNA)
RNA: B1 RNA with C25U, C26G, A28C, U29A, U30C, A31C
DNA 1: CAATCTGAATTCCGGTCTCCC
DNA 2: TGGTGGCTACGACGGGATT
B7: ACCCCAC (DNA:RNA)
RNA: B1 RNA with C25A, G27C, A28C, U29C, U30A, A31C
DNA 1: CAATCTGAATTCCGGTCTCCC
DNA 2: TGGTGGCTACGACGGGATT
B8: CCUAUUU (DNA:RNA)
RNA: B1 RNA with G27U, A31U
DNA 1: CAATCTGAATTCCGGTCTCCC
DNA 2: TGGTGGCTACGACGGGATT
B9: AUCCCAG (DNA:RNA)
RNA: GGGAGACCGGAAUUCAGAUUGUCCAUCCCAGUUAAAUCCCGUCGUAGCCACCA
DNA 1: CAATCTGAATTCCGGTCTCCC
DNA 2: TGGTGGCTACGACGGGATT
B10: CUCAAGU (DNA:RNA)
RNA: B9 RNA with A25C, C28A, C29A, A30G, G31U
DNA 1: CAATCTGAATTCCGGTCTCCC
DNA 2: TGGTGGCTACGACGGGATT
B11: GGCAGAG (DNA:RNA)
RNA: B9 RNA with A25G, U26G, C28A, C29G
DNA 1: CAATCTGAATTCCGGTCTCCC
DNA 2: TGGTGGCTACGACGGGATT
B12: UCAUGUU (DNA:RNA)
RNA: B1 RNA with C25U, G27A, A28U, U29G, A31U
DNA 1: CAATCTGAATTCCGGTCTCCC
DNA 2: TGGTGGCTACGACGGGATT
B13: GCGCCCU (DNA:RNA)
RNA: B9 RNA with A25G, U26C, C27G, A30C, G31U
DNA 1: CAATCTGAATTCCGGTCTCCC
DNA 2: TGGTGGCTACGACGGGATT
B14: GAUCAGU (DNA:RNA)
RNA: B9 RNA with A25G, U26A, C27U, C29A, A30G, G31U
DNA 1: CAATCTGAATTCCGGTCTCCC
DNA 2: TGGTGGCTACGACGGGATT
B15: UAAUGAU (DNA:RNA)
RNA: B9 RNA with A25U, U26A, C27A, C28U, C29G, G31U
DNA 1: CAATCTGAATTCCGGTCTCCC
DNA 2: TGGTGGCTACGACGGGATT
B16: UUGCCUG (DNA:RNA)
RNA: B9 RNA with A25U, C27G, A30U
DNA 1: CAATCTGAATTCCGGTCTCCC
DNA 2: TGGTGGCTACGACGGGATT
B17: AACAAAG (DNA:RNA)
RNA: B9 RNA with U26A, C28A, C29A
DNA 1: CAATCTGAATTCCGGTCTCCC
DNA 2: TGGTGGCTACGACGGGATT
B18: GGACCCG (DNA:RNA)
RNA: B9 RNA with A25G, U26G, C27A, A30C
DNA 1: CAATCTGAATTCCGGTCTCCC
DNA 2: TGGTGGCTACGACGGGATT
B19: GUGAAUC (DNA:RNA)
RNA: B1 RNA with C25G, C26U, U29A, A31C
DNA 1: CAATCTGAATTCCGGTCTCCC
DNA 2: TGGTGGCTACGACGGGATT
B20: GCUUUGU (DNA:RNA)
RNA: B1 RNA with C25G, G27U, A28U, U30G, A31U
DNA 1: CAATCTGAATTCCGGTCTCCC
DNA 2: TGGTGGCTACGACGGGATT

These binders were tested against T1, RBFOX1 RRM RbFoxmut (Fox-RRM*) (Homo sapiens, UniProt Q9NWB1 109-208, R118D;E147R;N151S;E152T) (assay: EMSA; HiTS-Eq, 1 nM pool, 10 min; buffer printed only for the single-RNA assays: 10 mM Tris pH 7.5, 150 mM NaCl, 3.4 mM EDTA, 0.001% NP-40, 30 C). Conditions: tags: His6 N-terminal (pET28a); label: 5' 32P.
T1 sequence: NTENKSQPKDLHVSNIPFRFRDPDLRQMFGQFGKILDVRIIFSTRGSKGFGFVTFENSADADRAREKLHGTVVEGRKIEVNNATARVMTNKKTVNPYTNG
How it was run: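 Relative association constants, normalised to the cognate motif, were derived by comparing read counts of each RNA species with those of the control reaction. The RNA sequenced was the free fraction, separated by 8% native PAGE after a 10 min equilibration in 50 µL of 1 nM 5′-radiolabelled RNA (7 randomized nucleotides) with increasing concentrations of purified wild-type or mutant RbFox RRM.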

Row | Binder | binding signal
1 | B1 | 0.116 KA relative to UGCAUGU
2 | B2 | 0.117 KA relative to UGCAUGU
3 | B3 | 0.136 KA relative to UGCAUGU
4 | B4 | 0.0995 KA relative to UGCAUGU
5 | B5 | 0.0632 KA relative to UGCAUGU
6 | B6 | 0.113 KA relative to UGCAUGU
7 | B7 | 0.104 KA relative to UGCAUGU
8 | B8 | 0.0808 KA relative to UGCAUGU
9 | B9 | 0.109 KA relative to UGCAUGU
10 | B10 | 0.139 KA relative to UGCAUGU
11 | B11 | 0.0728 KA relative to UGCAUGU
12 | B12 | 0.125 KA relative to UGCAUGU
13 | B13 | 0.0571 KA relative to UGCAUGU
14 | B14 | 0.0801 KA relative to UGCAUGU
15 | B15 | 0.0487 KA relative to UGCAUGU
16 | B16 | 0.377 KA relative to UGCAUGU
17 | B17 | 0.0531 KA relative to UGCAUGU
18 | B18 | 0.123 KA relative to UGCAUGU
19 | B19 | 0.42 KA relative to UGCAUGU
20 | B20 | 0.185 KA relative to UGCAUGU
